The whole screen tested about 120,000 compounds, of which about 5,300 (4.4%) were called active. Inconclusive results, whose numbers are uncertain, are shown with a selection of clear calls. Calls follow the shape of the dose curve; as a rule, active = well fitted inhibition curve with a large enough effect; inconclusive = small, poorly fitted or top-dose-only effect; inactive = no such curve, though single readings can be large or run the other way. Where the call is inconclusive, the potency comes from a doubtful curve fit.
assay: qHTS Primary assay for Inhibitors of Plasmodium falciparum Dd2 growth in vitro; also: nearly all actives have a fitted effect of over 65% in size;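 as to activity, negative = inhibition: plate controls were DMSO vehicle for no effect and reference drug for full effect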; settings: P. falciparum Dd2 growth, SYBR Green, 72 h; activity, negative = inhibition: at 28.9 µM (top of the series) unless noted; series mostly up to 28.9 µM
How it was run: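 Infected erythrocytes (Dd2, 0.3% parasitemia, 2.5% hematocrit final) are added to compound in RPMI-1640/Albumax II medium, grown 72 h at 37C in low oxygen, then lysed with saponin/Triton-X containing SYBR Green and read by fluorescence.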
Potency is read from the fitted curve at half-maximal effect; tags tell the direction and shape of the fitted curve.

Compound | Potency | outcome | activity, negative = inhibition
O=C(NCCc1cnc[nH]1)c1cc(-c2ccccc2F)cc2c1OCCN2Cc1cccnc1 | inconclusive: 2 µM [inhibitor, partial curve, poor fit] |  | 
COCCN1CCC(CN(CC2CCCO2)C(=O)c2cc(Cl)cn2C)CC1 (configuration not stated) |  | inactive | 
O=C1OCC2(CCN(Cc3ccc4c(c3)CCO4)C2)N1Cc1ccccc1 (configuration not stated) | inconclusive: 12.6 µM [inhibitor, partial curve, poor fit] |  | 
COc1ccc(-c2cc(N3CCCC(NC(=O)c4cccc(C)c4)C3)n[nH]2)cc1 (configuration not stated) | inconclusive: 3.16 µM [inhibitor, full curve, poor fit] |  | 
O=C1CO[C@H]2CCN(Cc3ccncc3Cl)CC[C@@H]2N1c1ccccc1 | inconclusive: 14.1 µM [inhibitor, single point] |  | 
CCN(CC)C(=O)C(C)[C@@H]1CC[C@@]2(C)CC[C@H](NC(=O)c3cnccn3)[C@@H](C)[C@@H]2[C@H]1O (some centres not stated) | inconclusive: 0.447 µM [inhibitor, full curve, poor fit] |  | 
CN1C(=O)CS(=O)(=O)C12CCN(C(=O)COc1ccc(Cl)cc1)CC2 | inconclusive: 7.08 µM [inhibitor, partial curve, poor fit] |  | 
Cn1nc(-c2nncn2CC2CC2)c2c1CCNC2 |  |  | inactive: -7.84%
O=C(NCC(c1ccco1)S(=O)(=O)c1ccc(Cl)cc1)c1ccccc1F (configuration not stated) |  |  | inconclusive: -32.4% [inhibitor] [at 5.79 µM]
COc1ccc(CCNC(=O)c2nnc(Cc3ccc(Cl)cc3)o2)cc1OC | inconclusive: 11.2 µM [inhibitor, single point] |  | 
Cc1ccc2oc(=O)c3cnn(CC(=O)Nc4cccc(C(F)(F)F)c4)c3c2c1 | active: 1.12 µM |  | 
O=[N+]([O-])c1cc(-c2nc(-c3cccnc3)no2)ccc1NCc1ccccc1 | inconclusive: 1.58 µM [inhibitor, single point] |  | 
CCCN1CCN(CCCNC(=O)c2cnn(-c3ccc(F)cc3)c2-n2cccc2)CC1 | inconclusive: 3.98 µM [inhibitor, partial curve] |  | 
O=C(Cn1c(=O)n(-c2ccccc2)c(=O)c2sc3ccccc3c21)N1CCCC1 |  |  | inactive: -6.81%
O=S(=O)(c1cccc(C(F)(F)F)c1)n1c(/C=C/c2ccccc2)nc2ccccc21 | inconclusive: 11.2 µM [inhibitor, partial curve] |  | 
CN(Cc1ccccc1C(F)(F)F)C(=O)Nc1ccccc1 | inconclusive: 15.8 µM [inhibitor, single point] |  | 
Cc1cc2nc3n(c(=O)c2n1CC(=O)NCc1ccccc1F)CCCCC3 | inconclusive: 3.16 µM [inhibitor, partial curve, poor fit] |  | 
